According to article PMC4336329 (PLoS ONE, 2015):
Out of some 310,000 compounds screened, about 14,000 (4.5%) showed an effect of 50% or more. The effect is printed as a negative number. This is one part of the list.

Biological target: human ether-à-go-go-related gene (hERG) potassium channel (human, UniProt Q12809)
Assay: primary screen, population patch clamp on CHO cells stably expressing hERG
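Note: peak tail current of the secondary pulse compared with the same well before compound.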

Chain of human ether-à-go-go-related gene (hERG) potassium channel (Q12809 whole entry, looked up): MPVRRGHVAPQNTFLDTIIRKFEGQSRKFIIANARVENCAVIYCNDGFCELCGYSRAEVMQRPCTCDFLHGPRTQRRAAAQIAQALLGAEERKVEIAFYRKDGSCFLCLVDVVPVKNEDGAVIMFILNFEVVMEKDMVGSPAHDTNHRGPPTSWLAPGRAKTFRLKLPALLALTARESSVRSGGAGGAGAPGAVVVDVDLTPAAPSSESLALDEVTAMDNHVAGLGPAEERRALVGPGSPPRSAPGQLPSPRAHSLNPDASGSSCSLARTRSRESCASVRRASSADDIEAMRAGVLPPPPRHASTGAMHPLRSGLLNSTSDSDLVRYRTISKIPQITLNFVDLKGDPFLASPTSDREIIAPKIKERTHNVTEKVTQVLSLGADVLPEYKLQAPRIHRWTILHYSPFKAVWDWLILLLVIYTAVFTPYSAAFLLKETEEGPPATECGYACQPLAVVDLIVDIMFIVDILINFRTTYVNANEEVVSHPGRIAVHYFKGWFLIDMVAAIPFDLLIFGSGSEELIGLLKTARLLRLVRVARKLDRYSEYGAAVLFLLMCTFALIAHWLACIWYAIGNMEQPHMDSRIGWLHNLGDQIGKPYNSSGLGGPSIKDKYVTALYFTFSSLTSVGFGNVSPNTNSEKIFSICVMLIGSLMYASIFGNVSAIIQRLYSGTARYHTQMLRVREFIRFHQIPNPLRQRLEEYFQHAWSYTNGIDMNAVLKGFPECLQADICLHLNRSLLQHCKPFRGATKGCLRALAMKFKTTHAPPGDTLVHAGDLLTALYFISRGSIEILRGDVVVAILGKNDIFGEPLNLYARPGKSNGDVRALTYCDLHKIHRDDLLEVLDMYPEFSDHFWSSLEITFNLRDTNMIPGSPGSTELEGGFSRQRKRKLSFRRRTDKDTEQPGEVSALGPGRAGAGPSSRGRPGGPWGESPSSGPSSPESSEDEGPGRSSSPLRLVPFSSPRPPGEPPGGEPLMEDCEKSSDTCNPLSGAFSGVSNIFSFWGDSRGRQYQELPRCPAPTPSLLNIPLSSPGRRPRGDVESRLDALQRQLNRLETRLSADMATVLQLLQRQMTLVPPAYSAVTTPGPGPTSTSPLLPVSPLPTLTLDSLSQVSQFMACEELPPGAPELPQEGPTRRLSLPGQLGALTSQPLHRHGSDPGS

Row | Structure (SMILES) | hERG current change (%, negative = inhibition) at 10uM
1 | O=C(Oc1ccc(-c2cnc3ccccc3n2)cc1)c1ccc(Br)o1 | 25.5%
2 | Cc1ccc(C(=O)N(CC(=O)NC2CCCC2)c2cccc(F)c2)s1 | 7.23%
3 | COc1ccccc1-c1csc(NC(=O)c2cc(-c3cccs3)nc3ccccc23)n1 | 8.88%
4 | CCOC(=O)Cn1c2c(c(-c3ccccc3OC)cc1=O)CCCC2 | 2.38%
5 | COc1ccc(C(=O)CSc2nnc(-c3cc4ccccc4cc3O)n2Cc2ccco2)cc1 | -22.4%
6 | O=C1C2=C(c3ccccc31)[N+](=O)[C@@H]1CCCC[C@@H]1N2[O-] | 14.9%
7 | O=c1c2cnn(-c3ccccc3)c2ncn1Cc1ccccc1F | 16.5%
8 | Cc1ccc(S(=O)(=O)CCC(=O)Nc2ccccc2N2CCCC2)cc1 | -10.5%
9 | Cc1ccc(C(=O)c2cnc3cc4c(cc3c2S(=O)(=O)c2ccccc2)OCCO4)cc1 | 27.9%
10 | O=C(NCCCCc1ccccc1)C1CC(c2ccc([N+](=O)[O-])cc2)=NO1 (centres unmarked) | -25%
11 | CC(C)[C@@H](CO)NC(=O)c1ccc2c3n(nc2c1)-c1ccccc1CO3 | 9.78%
12 | CN(C)S(=O)(=O)c1cc(NC(=O)CN2CCN(c3ccccc3O)CC2)ccc1Cl | -24.3%
13 | COc1ccc(NC(=O)CN(C)C(=O)CSCc2c(C)noc2C)cc1 | -13.9%
14 | CCOC(=O)C1CCN(C(=O)CCc2nnc3ccc(NCc4ccco4)nn23)CC1 | -40.6%
15 | O=C(CCC1CCCCC1)NCCS(=O)(=O)N1CCN(c2ccc(F)cc2)CC1 | -16.2%
16 | O=C(NCCCN1CCOCC1)/C(=C/c1cccs1)NC(=O)c1ccccc1 | -21.8%
17 | CC(=O)c1c(COC(=O)c2ccccc2)nc2ccccc2[n+]1[O-] | -12.5%
18 | CCOC(=O)C1(CCOc2ccccc2)CCN(Cc2ccc(F)c(OC)c2)CC1 | -35.3%
19 | CCc1ccc2cccc3c2c1N=CN3C | 2.99%
20 | O=c1[nH]cnc(O)c1C(c1cccc([N+](=O)[O-])c1)c1c(O)nc[nH]c1=O | 10.2%
21 | CCOc1ccc2nc(NS(=O)(=O)c3cccs3)sc2c1 | 20.8%
22 | Cc1ccccc1CSCCNC(=O)CCSc1ccccc1 | 2.74%

Row | Structure (SMILES) | hERG current change (%, negative = inhibition) at 10uM
23 | O=C1C=CC(=O)N1Nc1ccc(Br)cc1 | 8.97%
24 | O=C(CN1C(=O)NC2(CCc3ccccc3C2)C1=O)NCC(F)(F)F (centres unmarked) | 11.4%
25 | CCOC(=O)c1nn(-c2ccc(Cl)cc2C)ccc1=O | -0.255%
26 | Cc1cc(NC(=O)CSc2nc3cc(Cl)ccc3c(=O)n2CC(C)C)no1 | 27.8%
27 | CC(C)c1ccccc1NC(=O)Nc1ccc2c(c1)OCO2 | 11.1%
28 | CCCc1cc(=O)oc2c(C)c(OS(C)(=O)=O)ccc12 | -17%
29 | COC(=O)Cc1c(O)ccn(CCc2ccccc2)c1=O | 51.2%
30 | O=C(Cn1cccc1)N1CCN(c2ccc(F)cc2)CC1 | 1.54%
31 | CN(C)CCOc1ccccc1Cc1ccccc1.O=C(O)CC(O)(CC(=O)O)C(=O)O | -61.9%
32 | CCOC(=O)N1CCN(C(=O)c2ccc(S(=O)(=O)Nc3cccc(C(F)(F)F)c3)cc2)CC1 | -24.1%
33 | CC(=C/c1ccccc1)/C=N/NC(=O)c1cnccn1 | -11.4%
34 | Cc1cc(-c2ccco2)n(-c2ccccc2)n1 | 7.56%
35 | Oc1ccc(-c2c(-c3ccsc3)sc3ccccc23)cc1 | 15.8%
36 | NC(N)=Nc1cc2ccccc2c2ccccc12 | -4.47%
37 | COc1ccc(NC(=O)Cn2nnc(C(=O)NCc3ccccc3OC)c2N)cc1Cl | 11.2%
38 | CC(=O)/C(N=Nc1cc2c(cc1[N+](=O)[O-])OCCO2)=C(\C)O | 21%
39 | CC(C)S(=O)(=O)N1CCCC(C(=O)c2cccc(Cl)c2)C1 (centres unmarked) | -5.17%
40 | O=C(NC1CCS(=O)(=O)C1)c1sc2ccccc2c1Cl (centres unmarked) | -5.59%
41 | O=C(CNC(=O)c1ccc2c(c1)OCCO2)N/N=C/c1ccco1 | 16.3%
42 | Cc1cc(C)c(NC(=O)CSc2nc3ncc(Br)cc3[nH]2)c(C)c1 | 17.6%
43 | CCC(=O)OC1(C(=O)CCl)[C@@H](C)C[C@H]2[C@@H]3CCC4=CC(=O)C=C[C@]4(C)[C@@]3(F)[C@@H](O)C[C@@]21C (some centres unmarked) | 12.4%
44 | COC(=O)c1ccc(/C=C2\SC(=S)N(CCCC(=O)NCCCN3CCOCC3)C2=O)cc1 | -0.615%
